Out of some 52,000 compounds screened, about 4,300 (8.3%) were called active. Rule as the data show it: active = survival mostly below about 52% (no sharp cut-off); inactive = mostly above about 56%. This is one part of the list.

The assay concerns DeltatarO mutant. Kind of assay: S. aureus survival, RN4220 and DeltatarO strains – OD600, teichoic acid synthesis inhibitors, primary screen (AID 463173). Particulars: S. aureus RN4220 wild type/DeltatarO growth, OD600, 18 h, active compounds read low, screened at 18.75 µg/mL (by protocol).
Consider `COc1ccccc1CNC(=O)Cc1csc2nc(-c3ccccc3)cn12`, for which the survival was inactive: 75%.

For the molecule `CC1(CCC(=O)O)NNC(=S)NN1`, the survival was inactive: 80%.

Regarding `O=C(CCC1N=C2c3ccccc3N=C(SCc3ccccc3F)N2C1=O)NCCc1ccccc1` (configuration not stated), the survival is inactive: 70%.

Regarding `Cc1cc(C)c(NC(=O)Cn2ccn(-c3cccc(Cl)c3)c(=O)c2=O)c(C)c1`, the survival was inactive: 57%.

`COC(=O)C1CCN(CC(=O)Nc2cc(C)c3c(=O)oc4ccccc4c3n2)CC1`: the survival is inactive: 83%.

Consider `COc1ccc(N(C(=O)c2cccc(C)c2)S(=O)(=O)c2ccc(C)cc2)cc1`, for which the survival was inactive: 72%.

With `O=C(Nc1nnc(S(=O)(=O)N2CCCc3ccccc32)s1)c1cccc(F)c1`, the survival is active: 7%.

On to `Cc1ccc2c(c1)N(C(=O)C1CCN(S(=O)(=O)c3c(C)noc3/C=C/c3ccccc3F)CC1)CCO2`, for which the survival was inactive: 71%.

On to `CCn1c(SCc2ccc(F)cc2Cl)nnc1-c1nonc1NC(C)=O`, for which the survival is inactive: 106%.

As to `CCOC(=O)c1ccc(NC(=O)c2c(C)nn(-c3ccc(F)cc3)c2-n2cccc2)cc1`, the survival is inactive: 80%.

For the molecule `COc1cc2[nH]c(=O)n(Cc3ccc(C(=O)N4CCN(c5cc(Cl)ccc5C)CC4)cc3)c(=O)c2cc1OC`, the survival is inactive: 58%.

Consider `O=S(=O)(NCCc1ccccc1)c1cccs1`, for which the survival was inactive: 95%.

`COc1ccc(N(Cc2cccs2)C(=O)c2ccc(C(C)(C)C)cc2)cc1`: the survival was inactive: 72%.

Consider `O=C(NCC(c1ccc2c(c1)OCO2)N1CCOCC1)C(=O)Nc1ccc(F)cc1F` (configuration not stated), for which the survival was inactive: 131%.

On to `O=C(Cn1cnc2c(oc3ccccc32)c1=O)Nc1ccc(OC(F)(F)F)cc1`, for which the survival was inactive: 83%.

As for `COc1nc2nonc2nc1OC`, the survival is inactive: 86%.

Consider `O=C(CN1C(=O)CC(c2ccco2)Sc2ccccc21)Nc1ccc(C(F)(F)F)cc1` (configuration not stated), for which the survival was inactive: 68%.

In the case of `C1Cc2nnc3c4c(nnc(c24)C1)CCC3`, the survival is inactive: 88%.

Consider `CCc1ccccc1NC(=O)Nc1nnc(N(C)Cc2ccccc2)s1`, for which the survival was inactive: 60%.

Regarding `CCOc1ccc(C(=O)N2CCC(C)CC2)cc1`, the survival was inactive: 74%.

With `COc1cccc(-c2nnc(-c3ccc(C)o3)o2)c1`, the survival is inactive: 58%.

In the case of `Clc1ccc(N2CCN(c3ncnc4c3cnn4-c3ccccc3)CC2)cc1Cl`, the survival is inactive: 67%.

For `Cn1c(=O)c2c(nc(NN=C3CCCCC3)n2C)n(C)c1=O`, the survival was inactive: 103%.

For `COc1ccc(NC(=O)c2cc(S(=O)(=O)N3CCCCCC3)cn2C)cc1Cl`, the survival was inactive: 77%.

Take `COc1ccc(CNC(=O)CCNS(=O)(=O)c2cccc3nsnc23)cc1`: the survival is inactive: 54%.

For the molecule `CCOc1ccccc1CNC(=O)c1ccc(NC(=O)N2CCSc3ncccc32)cc1`, the survival was inactive: 79%.

For the molecule `COc1ccc(OC)c(CNC(=O)Cn2nc(C)c3nn(-c4ccc(Cl)cc4)c(C)c3c2=O)c1`, the survival is inactive: 83%.

Consider `COc1ccc2oc(=O)c(-c3cn4c(n3)sc3cc(OC)ccc34)cc2c1`, for which the survival was inactive: 54%.

With `COc1ccc(OC)c(NC(=O)c2ccccc2)c1`, the survival is inactive: 105%.

On to `COc1ccc2c(Sc3ccccc3)c(C(=O)NCCCN3CCCCC3)[nH]c2c1`, for which the survival is inactive: 54%.

With `COc1ccc(/C=C/C(=O)Nc2nc3n(n2)C(c2ccccc2)C=C(c2ccc(Cl)cc2)N3)cc1` (configuration not stated), the survival was inactive: 77%.

Regarding `O=C(CSC1=NC(=O)C(c2ccccc2)C(=O)N1)Nc1nncs1` (configuration not stated), the survival is inactive: 70%.

On to `CN(C)c1ncnc(Cl)c1N`, for which the survival was inactive: 60%.

As for `CCC(C)Sc1oc(-c2ccco2)nc1S(=O)(=O)c1ccc(C)cc1` (configuration not stated), the survival is active: 18%.

In the case of `COc1cccc(C2C(C(=O)Nc3ccc(Cl)cc3)=C(C)Nc3nc4ccccc4n32)c1` (configuration not stated), the survival was inactive: 53%.

Turning to `COc1ccccc1C1Nc2c(sc3nc(C)cc(C)c23)C(=O)N1c1ccccc1` (configuration not stated), the survival is inactive: 66%.

With `COc1cccc(CC(=O)Nc2ccc(-c3nc4ccccc4s3)cc2)c1`, the survival is active: 0%.

For the molecule `COc1ccc(Cl)cc1NC(=O)c1nnn(Cc2cccc(C(F)(F)F)c2)c1N`, the survival was inactive: 122%.

In the case of `COc1ccc2c(c1)c1c(c(=O)n(-c3ccc(C)cc3)c(=O)n1CC(=O)NCc1ccc(C)cc1)n2C`, the survival was inactive: 94%.

Regarding `COc1ccc(OCC(=O)Nc2cc(-c3nc4ccccc4s3)ccc2C)cc1`, the survival is active: 45%.

Take `CCc1nnc(NC(=O)CN2CCN(c3ccccc3)CC2)s1`: the survival is inactive: 76%.

For the molecule `Cc1cccc(N2CCN(S(=O)(=O)c3ccc(-c4cc(C(F)(F)F)on4)s3)CC2)c1C`, the survival is inactive: 101%.

With `Cc1ccccc1OCC(=O)Nc1ccc2nc(SCC(=O)N3CCc4ccccc43)sc2c1`, the survival was inactive: 56%.

Take `O=C(C1CCCN(S(=O)(=O)c2ccc(Br)s2)C1)N1CCN(c2cccc(Cl)c2)CC1` (configuration not stated): the survival was inactive: 99%.

Take `CNc1ccc(-c2nc(-c3ccco3)no2)cc1[N+](=O)[O-]`: the survival was inactive: 53%.

In the case of `CC(C)NC(=O)c1cc(-c2ccccc2)on1`, the survival was inactive: 98%.

`Cc1ccccc1NC(=O)c1ccc2c(O)c(S(=O)(=O)c3ccccc3)c(=O)[nH]c2c1`: the survival is inactive: 69%.

In the case of `CC(=O)Oc1cccc(NC(=O)CC2SC(N)=NC2=O)c1` (configuration not stated), the survival was inactive: 96%.

Regarding `Cc1cc2c(cc1C)NC(CC(=O)Nc1cccc(Cl)c1)C(=O)N2` (configuration not stated), the survival was inactive: 65%.

With `NS(=O)(=O)c1ccc(CCNC(=O)Cn2c(-c3cccs3)cc3ccccc32)cc1`, the survival was inactive: 107%.

As to `C=CCN1CCN(C(c2ccccc2)c2nnnn2CCC(C)C)CC1` (configuration not stated), the survival was inactive: 94%.

Turning to `O=C(NCC(c1ccc2c(c1)OCO2)N1CCOCC1)C(=O)Nc1ccccc1` (configuration not stated), the survival was inactive: 81%.

Take `CCN(CC)c1ccc(NC(=O)CCc2nc3cccnc3n2Cc2cccs2)c(C)c1`: the survival is inactive: 51%.

For the molecule `O=C(NCCc1ccccc1)c1ccc(CS(=O)(=O)Cc2ccccc2Cl)o1`, the survival was inactive: 87%.

As for `CCc1ccc(NC(=O)CN2C(=O)CCSc3ccccc32)cc1`, the survival is inactive: 86%.

Consider `Cc1cc(=O)n(CC(=O)NCc2ccc(OC(C)C)cc2)c2c1c(C)nn2-c1cccc(F)c1`, for which the survival is inactive: 77%.

With `Cc1cc(C)cc(NS(=O)(=O)c2ccc(N3CCCCS3(=O)=O)cc2)c1`, the survival is inactive: 76%.

As to `C=COCCn1c(-c2nonc2N)nc2ccccc21`, the survival was inactive: 80%.

Take `CNC(=O)NCCN1CCCC1=O`: the survival is inactive: 64%.

Regarding `COc1ccc(CCNC(=O)c2c(C)oc3ncnc(N4CCOCC4)c23)c(OC)c1`, the survival was inactive: 101%.

In the case of `Cc1cc(C)cc(Nc2cc(C(=O)NC3CCC(C)CC3)c3ccccc3n2)c1` (configuration not stated), the survival was inactive: 106%.

Turning to `Cc1ccc(S(=O)(=O)Nc2cc3c(cc2C)n(C)c(=O)c(=O)n3C)c(C)c1`, the survival is inactive: 76%.

Take `Cn1nnnc1SCCCNCc1ccc(-c2ccc(F)c(Cl)c2)o1`: the survival was inactive: 82%.

As to `CCc1nc(-c2cc(S(=O)(=O)N3CCN(c4ccccc4F)CC3)ccc2OC)no1`, the survival is active: 42%.

In the case of `CCCN1C(C(=O)c2ccccc2)=C(OC(=O)c2ccc(OC)cc2)c2ccccc2S1(=O)=O`, the survival is inactive: 56%.

As for `O=C(Cn1c(=O)c(C(F)(F)F)nc2ccccc21)Nc1cccc(Br)c1`, the survival was inactive: 99%.

On to `CC(C)(C)C(=O)NC1CCN(CC(=O)N(C2CCCCC2)C2CCCCC2)CC1`, for which the survival is inactive: 72%.

As for `CCn1c(=O)sc2cc(NS(=O)(=O)c3ccc(C)cc3)ccc21`, the survival is inactive: 62%.

Turning to `CC(=O)Nc1ccc(NC(=O)c2ccc3c(c2)NC(=O)c2ccccc2S3)cc1`, the survival was inactive: 107%.

For `Cc1ccc(NC(=O)C(C)Sc2nc(-c3ccccc3)c(C#N)c(=O)[nH]2)c(C)c1` (configuration not stated), the survival is inactive: 70%.

Take `O=C(Nc1nnc(S(=O)(=O)N2CCOCC2)s1)c1ccccc1F`: the survival is inactive: 86%.

In the case of `CC(C)Cc1nn2c(=O)cc(COC(=O)c3ccc(NC(=O)CCc4ccccc4)cc3)nc2s1`, the survival is inactive: 77%.

With `O=c1c(N2CCc3ccccc3C2)csc2ccc(Cl)cc12`, the survival is inactive: 91%.

Take `CC(C)c1cnc2c(c1SCC(=O)N1CCCCC1)c(=O)n(C)c(=O)n2C`: the survival was inactive: 107%.

`COc1ccc(Nc2c(-c3ccc(N4CCOCC4)cc3)nc3ncccn23)cc1OC`: the survival was inactive: 90%.

For `COc1ccc(/C=C/C(=O)Nc2sc(C)c(C)c2C(=O)O)cc1`, the survival is inactive: 60%.

For the molecule `CCOc1cc(CN2CCN(S(=O)(=O)c3ccc(C)cc3)CC2)ccc1OC`, the survival was inactive: 171%.

`CCOc1ccc(-c2nc(SCC(=O)c3ccccc3)n[nH]2)cc1`: the survival is inactive: 179%.

As to `Brc1cccc(-c2nnc(CN3CCN(c4ccccn4)CC3)o2)c1`, the survival is inactive: 80%.

Take `Cc1ccc(S(=O)(=O)Cc2ccc(C(=O)NCCc3ccc(Cl)cc3)o2)cc1`: the survival is inactive: 56%.

Turning to `COCCCNC(=O)c1cnc2c(-c3ccc(F)cc3)c(C)nn2c1C`, the survival was inactive: 130%.

Turning to `CCOC(=O)C1CCN(C(c2cccc(F)c2)c2c(O)cc(C)n(Cc3ccco3)c2=O)CC1` (configuration not stated), the survival is inactive: 113%.

For `O=C(c1ccc(Br)cc1)N1CCN(CCc2ccncc2)CC1`, the survival is inactive: 78%.

Turning to `COc1ccc(-c2noc(N(c3cccc(Cl)c3)c3nc(-c4ccc(OC)c(OC)c4)no3)n2)cc1OC`, the survival is inactive: 150%.

`O=C(NCc1ccco1)C1CCN(S(=O)(=O)Cc2ccccc2)CC1`: the survival is inactive: 94%.

As to `Cc1ccc2cc(C#N)c(NCCNC(=O)Nc3ccccc3C)nc2c1`, the survival was inactive: 63%.

As for `O=C1c2[nH]nc(-c3ccccc3O)c2C(c2ccccc2F)N1Cc1cccnc1` (configuration not stated), the survival is inactive: 87%.

`Cc1cccc(-n2c(Cc3ccccc3)nnc2SCc2nc(-c3cccs3)no2)c1`: the survival is inactive: 60%.

In the case of `CCOC(=O)c1ccc(N2C(=O)c3n[nH]c(-c4ccco4)c3C2c2ccc(O)c(OCC)c2)cc1` (configuration not stated), the survival was inactive: 69%.

With `Cc1cccc(Nc2nnc(-c3ccc(C)c(S(=O)(=O)NCC4CCCO4)c3)c3ccccc23)c1` (configuration not stated), the survival was inactive: 82%.

For the molecule `COCCNc1ccc(-c2nc(-c3ccco3)no2)cc1[N+](=O)[O-]`, the survival was inactive: 54%.

Turning to `COC(=O)C1=C(C)NC(=O)C1(NC(=O)c1cc(OC)c(OC)c(OC)c1)C(F)(F)F` (configuration not stated), the survival is inactive: 54%.

These data come from PubChem BioAssay AID463173 (ICCB-Longwood Screening Facility, Harvard Medical School, 2010).
